# Several values for one entry are separate records, joined by “and”; a condition that tells them apart may be missing. Equal entries are not always repeated. The whole screen tested about 150,000 compounds, of which about 180 (0.12%) were called active. The inconclusive results got no clear call from the source; some entries with a clear call stand among them for comparison. Calls follow the shape of the dose curve; as a rule, active = well fitted cell-killing curve with a large enough effect; inconclusive = small, poorly fitted or top-dose-only effect, or effect the other way; inactive = flat fitted curve, though single readings scatter. A potency beside an inconclusive call is a rough fit, not a confirmed value.
# Assay: GF-AFC viability counterscreen for inhibitors of alpha-synuclein gene (SNCA) expression; also: nearly all actives have a fitted effect of over 30% in size;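 as to activity change, negative = cytotoxicity: 0% = DMSO-treated cells and -100% = medium-only wells without cells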
# Details: HEK-293-SNCA-luc viability, GF-AFC fluorescence, 24 h; activity change, negative = cytotoxicity: at 57.1 µM (top of the series) unless noted
# In short: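 HEK-293-SNCA-luc cells (1500/well) plated 24 h, then exposed 24 h to a dilution series; GF-AFC added 30 min at 37C, fluorescence 405/540 nm; normalised to medium-only and DMSO wells, Hill fit.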
# Potency is read from the fitted curve at half-maximal effect; tags tell the direction and shape of the fitted curve.
SMILES,Potency,"activity change, negative = cytotoxicity"
COc1ccc(NC(=O)C2(C)CCc3cnc(NCc4ccccc4)nc32)cn1 (stereo not given),"inconclusive: 15.8 µM [cytotoxic, partial curve, poor fit]",–
O=C(c1nnc(COc2ccc(F)cc2)n1-c1ccccc1)N1CCC[C@@H]1C(c1ccccc1)c1ccccc1,"inconclusive: 25.1 µM [cytotoxic, single point]",–
c1cc(N2CCOCC2)ncc1-c1noc([C@@H]2CCCN2C2CCOCC2)n1,inactive,–
CCCCC(=O)OC1=C(C(=O)c2ccccc2)N(CC)S(=O)(=O)c2ccccc21,"inconclusive: 22.4 µM [cytotoxic, partial curve, poor fit]",–
CCc1ccc(C2c3c(-c4cc(C)ccc4O)n[nH]c3C(=O)N2Cc2cccnc2)cc1 (stereo not given),"inconclusive: 31.6 µM [cytotoxic, single point]",–
COCCN[C@@H]1C[C@@H]2c3[nH]c4ccccc4c3C[C@@H](C(=O)OC)N2[C@H](c2ccc(C(F)(F)F)cc2)C1,inactive,–
O=C(NC1CC(c2cc(=O)[nH]c(C3CC3)n2)C1)c1ccc2c(c1)CCCO2 (stereo not given),"inconclusive: 15.8 µM [cytotoxic, partial curve, poor fit]",–
CN(C)c1ncc2nc(-c3cccs3)c(=O)n(Cc3cccs3)c2n1,"inconclusive: 7.08 µM [rising, single point]",–
CCc1nc(-c2c3n(c(=O)n(CC(=O)NC4CCCCC4)c2=O)CCCC3)no1,"inconclusive: 2.24 µM [rising, full curve, poor fit]",–
CC(C)NC(=O)c1ccccc1OCC1CCCN(Cc2nccs2)C1 (stereo not given),inactive,–
COCCCNC(=O)c1cc(-c2cccnc2)nc2c1cnn2C,"inconclusive: 63.1 µM [cytotoxic, partial curve, poor fit]",–
Cc1nc(CC2CCN(C(=O)c3cc4c(s3)CCC(C)C4)CC2)no1 (stereo not given),inactive,–
CCOC(=O)c1c(NC(=O)CSc2nc(-c3ccccc3)cc(C(F)(F)F)n2)sc(C)c1C,"inconclusive: 25.1 µM [rising, partial curve]",–
CC(C)c1cnn2c(NCc3ccccc3)cc(N[C@@H](CO)[C@H](O)CO)nc12,"inconclusive: 607 nM [cytotoxic, full curve] and inconclusive: 1.68 µM [cytotoxic, full curve, poor fit]",–
Cc1noc2c(NCCc3ccccn3)cc(-c3cccnc3)nc12,inactive,–
CC(=O)N1CCC(Cc2noc(C3CCOCC3)n2)C1 (stereo not given),inactive,–
COCCNC(=O)c1cc(-c2ccccc2F)cc2c1OCCN2Cc1cccnc1,"inconclusive: 25.1 µM [cytotoxic, partial curve, poor fit]",–
Cc1ccc(C2=NN(CC(=O)NCCc3ccc(Cl)cc3)C(=O)CC2)cc1,"inconclusive: 39.8 µM [cytotoxic, single point]",–
C[C@H](C(=O)N1Cc2ccccc2CC2(CCN(CC3CCNCC3)CC2)C1)c1ccccc1,inactive,–
CC(=O)c1cccc(NC(=O)c2nc3ccccc3nc2N2CCCCC2)c1,"inconclusive: 17.8 µM [cytotoxic, single point]",–

SMILES,Potency,"activity change, negative = cytotoxicity"
COC(=O)CNC(=O)c1nc2cccnc2n(-c2ccccc2OC)c1=O,inactive,–
Cc1nn(-c2ccc(F)cc2)c(-n2cccc2)c1C(=O)NCCCN1CCN(c2cccc(Cl)c2)CC1,"inconclusive: 8.91 µM [rising, partial curve, poor fit]",–
Cc1nn2c(c1-c1ccccc1[S+](C)(=O)[O-])N(Cc1ccc(C(=O)O)s1)CCC2,"inconclusive: 7.94 µM [cytotoxic, full curve]",–
Cc1ccoc1-c1nc2ccncc2[nH]1,inactive,–
Cc1nc(CN2CC3(CCN(C)C3)c3cc(C(=O)NCc4ccccc4)ccc32)cs1 (stereo not given),inactive,–
O=C(NCc1ccc(Cl)cc1)c1cc2n(n1)CC(c1ccc(Cl)cc1)OC2 (stereo not given),inactive,–
CCn1nccc1C(=O)N1CCC2(CC1)CC(c1nc(C)no1)N(C)C2 (stereo not given),"inconclusive: 10 µM [cytotoxic, partial curve, poor fit]",–
COc1cc(Cl)c(C)cc1NC(=O)Cn1ncc2c(=O)oc3ccccc3c21,"inconclusive: 3.16 µM [cytotoxic, single point]",–
COc1cc(C(=O)NC2CCN(C)CC2)c(F)cc1Nc1ncc2c(n1)N(C1CCCC1)CC(F)(F)C(=O)N2C,"inconclusive: 16.8 µM [cytotoxic, partial curve, poor fit]",–
CCc1ccccc1NC(=O)CSC1=Nc2ccccc2C2=NC(Cc3ccccc3)C(=O)N12 (stereo not given),"inconclusive: 31.6 µM [cytotoxic, partial curve, poor fit]",–
O=C([C@@H]1CCCN1c1nccc(Nc2ccccc2Cl)n1)N1CCC(c2ccccc2)CC1,–,inactive: -4.38% [at 12.5 µM]
CCN1c2cc(C(=O)N3CCN(c4ccccc4)CC3)ccc2C(=O)N2CCCCCC21 (stereo not given),–,inactive: -7.28% [at 12.5 µM]
COc1ccc(CNc2ccnc(-c3cccc(C#N)c3)n2)c(OC)c1,"inconclusive: 4.47 µM [cytotoxic, single point]",–
Cc1ccc(CN2CC(Oc3ccccc3C(=O)N3CCOCC3)C2)cc1C,"inconclusive: 25.1 µM [cytotoxic, single point]",–
O=C(CSC1=Nc2ccccc2C2=NC(Cc3ccccc3)C(=O)N12)Nc1ccccc1C(F)(F)F (stereo not given),"inconclusive: 11.2 µM [cytotoxic, partial curve, poor fit]",–
CCc1noc(-c2cccn3c(CNC(=O)c4ccccc4)nnc23)n1,inactive,–
Cc1noc(-c2ccc(N3CCC(C)CC3)c([N+](=O)[O-])c2)n1,inactive,–
COc1ccc(NC(=O)Cn2c(=O)oc3cc(S(=O)(=O)NCc4ccccc4)ccc32)c(OC)c1,"inconclusive: 7.08 µM [cytotoxic, single point]",–
CCCCN(C)CCCNC(=O)Cn1ncc2c3ccccc3n(Cc3ccccc3F)c2c1=O,"inconclusive: 39.8 µM [cytotoxic, single point]",–
CN(C)Cc1ccccc1-c1nc(NCc2cccs2)c2ccccc2n1,"inconclusive: 12.6 µM [cytotoxic, partial curve, poor fit]",–

# Source: PubChem BioAssay AID1671193 (National Center for Advancing Translational Sciences (NCATS), 2021)
